± gives the uncertainty stated by the source. Shown are siRNA guide strands that differ only in the seed, positions 2 to 7.
Experiments:
HeyA8 = test: cell viability relative to lipid-only control; higher = less toxic; conditions: concentration: 10 nM; 96 h; Homo sapiens
H460 = test: as above; conditions: concentration: 10 nM; 96 h; Homo sapiens
M565 = test: as above; conditions: concentration: 10 nM; 96 h; Mus musculus
3LL = test: cell viability relative to siNT1 control; HeyA8 human ovarian and H460 human lung cancer; M565 mouse liver and 3LL mouse lung cancer; siNT1 is a non-toxic control siRNA; higher = less toxic; conditions: concentration: 10 nM; 96 h; Mus musculus
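Throughout, for cell viability relative to lipid-only control: reverse lipid transfection in 384-well plates, in triplicate, of duplexes on a non-toxic 19mer backbone with passenger strand 2′-O-methylated at positions 1 and 2, luminescence viability read-out.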
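Throughout, for cell viability relative to siNT1 control: Luminescence-based viability of cells reverse transfected in 384-well plates with lipid-complexed siRNAs built on a non-toxic 19mer backbone whose passenger strand carries 2′-O-methyl groups at positions 1 and 2, triplicates.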

| Sequence | cell viability (HeyA8) [%] | cell viability (H460) [%] | cell viability (M565) [%] | cell viability (3LL) [%] |
| --- | --- | --- | --- | --- |
| UAUGCAGACAUGUAAACCAAA | 104 ± 6.7 | 85.7 ± 6.3 | 50.5 ± 3.6 | 85.3 ± 2.8 |
| UACGCUAACAUGUAAACCAAA | 90.7 ± 3.5 | 66.4 ± 1.8 | 90.8 ± 12 | 91.3 ± 4.2 |
| UUGGCGAACAUGUAAACCAAA | 94.4 ± 3.2 | 60.6 ± 9.4 | 58.7 ± 8.6 | 83.1 ± 8.9 |
| UAAAGUUACAUGUAAACCAAA | 76.9 ± 3.9 | 63.5 ± 5.5 | 67.7 ± 6.4 | 79.7 ± 5.3 |
| UAAUAGGACAUGUAAACCAAA | 87.5 ± 9.3 | 75.1 ± 3.4 | 93.9 ± 7.4 | 96.6 ± 6.3 |
| UUAGUAAACAUGUAAACCAAA | 86.8 ± 3 | 74.6 ± 7.1 | 95.7 ± 18 | 79.4 ± 7.4 |
| UUCGACCACAUGUAAACCAAA | 55.4 ± 1.8 | 54.6 ± 7 | 40.4 ± 4.9 | 65.1 ± 13 |
| UCGUAUAACAUGUAAACCAAA | 90.9 ± 4.3 | 75.1 ± 19 | 67.7 ± 3.5 | 90.9 ± 12 |
| UGCAUCAACAUGUAAACCAAA | 60.5 ± 6.2 | 75.9 ± 7.3 | 65.4 ± 1.9 | 81.9 ± 14 |
| UCCCGCAACAUGUAAACCAAA | 83.9 ± 6.9 | 80.2 ± 12 | 67.4 ± 7.8 | 107 ± 17 |
| UAAUGACACAUGUAAACCAAA | 57.1 ± 2.6 | 64.3 ± 3.7 | 24.2 ± 5.6 | 57 ± 9 |
| UUGGACGACAUGUAAACCAAA | 72.5 ± 5.8 | 70.3 ± 7 | 29.5 ± 2.3 | 65 ± 6.2 |
| UGUAUUUACAUGUAAACCAAA | 68.8 ± 5.1 | 69.5 ± 19 | 74.1 ± 10 | 85.9 ± 2.8 |
| UACUCCCACAUGUAAACCAAA | 22.6 ± 1.9 | 62.7 ± 5.7 | 54.6 ± 13 | 45.2 ± 4.2 |
| UAGCAUCACAUGUAAACCAAA | 70.7 ± 9.1 | 66.5 ± 7.3 | 6.91 ± 2.9 | 72.8 ± 7.7 |
| UAGGGACACAUGUAAACCAAA | 14 ± 0.99 | 16.7 ± 2.7 | 4.76 ± 1.1 | 59 ± 12 |
| UGAAGCCACAUGUAAACCAAA | 8.52 ± 0.85 | 34 ± 2.1 | 5.03 ± 1.1 | 28.9 ± 5.3 |
| UAGAUGCACAUGUAAACCAAA | 22 ± 2.6 | 36 ± 6.5 | 7.05 ± 2.6 | 11.1 ± 1.1 |
| UCGCCACACAUGUAAACCAAA | 68.5 ± 2.8 | 73.5 ± 7.3 | 57.3 ± 8.6 | 77.4 ± 12 |
| UACCAAUACAUGUAAACCAAA | 84.4 ± 13 | 62.5 ± 8 | 52.5 ± 15 | 85.4 ± 7.2 |

| Sequence | cell viability (HeyA8) [%] | cell viability (H460) [%] | cell viability (M565) [%] | cell viability (3LL) [%] |
| --- | --- | --- | --- | --- |
| UAAGUGUACAUGUAAACCAAA | 67.5 ± 10 | 62.4 ± 8.8 | 31.9 ± 2.8 | 52.3 ± 5.4 |
| UGUUUAAACAUGUAAACCAAA | 74.3 ± 8.1 | 59.9 ± 7.5 | 85.8 ± 21 | 96 ± 11 |
| UACAGCUACAUGUAAACCAAA | 52.5 ± 2.3 | 59 ± 6.7 | 14.6 ± 1.6 | 14.5 ± 7.6 |
| UCGCAUAACAUGUAAACCAAA | 82.4 ± 1.8 | 58 ± 7.4 | 80.9 ± 7 | 95.2 ± 21 |
| UCUACAGACAUGUAAACCAAA | 80.7 ± 11 | 58.4 ± 6.7 | 73.2 ± 14 | 92.6 ± 13 |
| UUCGCGAACAUGUAAACCAAA | 96.1 ± 11 | 88.2 ± 4.6 | 99.7 ± 12 | 112 ± 21 |
| UGCGAAGACAUGUAAACCAAA | 77.5 ± 4.7 | 94.2 ± 12 | 62.3 ± 3.9 | 93.2 ± 13 |
| UCGGACCACAUGUAAACCAAA | 65.1 ± 4.1 | 65.7 ± 9.9 | 7.75 ± 1.6 | 36.9 ± 7.8 |
| UGGGCAAACAUGUAAACCAAA | 2.06 ± 0.34 | 19.9 ± 1.4 | 32.7 ± 5.5 | 70.3 ± 4.2 |
| UCGGAAUACAUGUAAACCAAA | 92.3 ± 4.9 | 70.2 ± 11 | 55.7 ± 7.3 | 95.9 ± 18 |
| UAGCUUAACAUGUAAACCAAA | 84.2 ± 11 | 81.8 ± 24 | 75.8 ± 11 | 87.8 ± 12 |
| UGCCGCAACAUGUAAACCAAA | 43.5 ± 5.5 | 82.5 ± 15 | 12 ± 3.1 | 14.4 ± 8.1 |
| UCUUGCGACAUGUAAACCAAA | 66 ± 13 | 58.9 ± 8.8 | 70.1 ± 16 | 97.3 ± 20 |
| UCUCUAUACAUGUAAACCAAA | 87 ± 6.6 | 41.7 ± 6.7 | 61 ± 14 | 107 ± 16 |
| UCACCACACAUGUAAACCAAA | 59.5 ± 4.7 | 54 ± 0.73 | 15.6 ± 4.1 | 68.4 ± 17 |
| UUUAUACACAUGUAAACCAAA | 89.3 ± 2.7 | 72.2 ± 2.6 | 81.7 ± 11 | 91.9 ± 6.9 |
| UACUGUUACAUGUAAACCAAA | 80.8 ± 10 | 74.8 ± 9.1 | 25.1 ± 5.3 | 49 ± 1.6 |
| UCCUACUACAUGUAAACCAAA | 50.6 ± 1 | 73.2 ± 4.8 | 76 ± 2.7 | 78.8 ± 26 |
| UCAGCUAACAUGUAAACCAAA | 91.2 ± 2.4 | 83.6 ± 12 | 73.5 ± 3.2 | 94.7 ± 15 |
| UUAAGAGACAUGUAAACCAAA | 90.8 ± 5 | 89 ± 21 | 95.4 ± 17 | 80 ± 3.9 |

| Sequence | cell viability (HeyA8) [%] | cell viability (H460) [%] | cell viability (M565) [%] | cell viability (3LL) [%] |
| --- | --- | --- | --- | --- |
| UACGUCUACAUGUAAACCAAA | 50 ± 9.5 | 75.4 ± 8 | 31.6 ± 11 | 81.9 ± 3.2 |
| UGACGGUACAUGUAAACCAAA | 27.1 ± 1.6 | 24.9 ± 3.9 | 27.7 ± 7 | 28.2 ± 6 |
| UGCGGGAACAUGUAAACCAAA | 9.84 ± 1.4 | 23.3 ± 2.3 | 40 ± 4.5 | 67.4 ± 8 |
| UCCUGUAACAUGUAAACCAAA | 79.2 ± 3.9 | 94.8 ± 2.7 | 65.5 ± 18 | 87.9 ± 9 |
| UACCUCUACAUGUAAACCAAA | 49.7 ± 5.6 | 41.3 ± 7.3 | 32.9 ± 9.7 | 27.2 ± 9.2 |
| UAAUGGAACAUGUAAACCAAA | 66.9 ± 5 | 76.6 ± 17 | 35.3 ± 16 | 91.1 ± 9.7 |
| UUUCUACACAUGUAAACCAAA | 76.7 ± 1.4 | 51.1 ± 3.4 | 43.5 ± 9.3 | 50.5 ± 6 |
| UCAUCUCACAUGUAAACCAAA | 27.6 ± 2.4 | 34.6 ± 4.1 | 41.7 ± 7 | 81.4 ± 15 |
| UGCUGGCACAUGUAAACCAAA | 28 ± 5.4 | 25.5 ± 3 | 29 ± 7 | 20.8 ± 6.5 |
| UGGUACAACAUGUAAACCAAA | 41.1 ± 3.2 | 50.5 ± 5.7 | 59.1 ± 11 | 65.2 ± 11 |
| UGUCAAAACAUGUAAACCAAA | 95.6 ± 6.9 | 49.6 ± 6.8 | 61.5 ± 10 | 89.4 ± 11 |
| UUCCAAAACAUGUAAACCAAA | 96.6 ± 11 | 77.4 ± 12 | 99.5 ± 6.9 | 109 ± 19 |
| UACGGGAACAUGUAAACCAAA | 78 ± 9.6 | 80.6 ± 25 | 59.8 ± 24 | 74.3 ± 4.4 |
| UCUUGAAACAUGUAAACCAAA | 81.4 ± 5.7 | 86.9 ± 8.5 | 79 ± 7.7 | 89.7 ± 14 |
| UCAGUAUACAUGUAAACCAAA | 78.4 ± 3.3 | 48.7 ± 2.3 | 69.3 ± 8.1 | 95.1 ± 13 |
| UUCCCCAACAUGUAAACCAAA | 78.2 ± 10 | 98.7 ± 19 | 26.8 ± 7.8 | 52.2 ± 19 |
| UCAUUUCACAUGUAAACCAAA | 13.4 ± 0.68 | 31.4 ± 2 | 36.9 ± 7.5 | 29.8 ± 1.4 |
| UGAACGCACAUGUAAACCAAA | 79 ± 2.8 | 49.5 ± 3.6 | 47.8 ± 3.9 | 63.2 ± 7.9 |
| UACAUGUACAUGUAAACCAAA | 27 ± 3.1 | 69.6 ± 14 | 32.3 ± 4.8 | 83.3 ± 9.1 |
